PubChem BioAssay AID1240 (Sanford-Burnham Center for Chemical Genomics, 2008)
Hit rate of the full screen: of about 50,000 compounds, about 800 (1.6%) showed an effect of 50% or more. This is one part of the list.

molecular target: Bcl-2-like protein 10 (Homo sapiens) (UniProt Q9HD36); experiment: Phenotype converters, Bcl-B/TR3 peptide binding displacement, primary biochemical FP (AID 1240); conditions: GST-Bcl-B / FITC-TR3 peptide fluorescence polarization; stronger effect = higher value; compound at 3.75 mg/L;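 further: 0% = Bcl-B with tracer peptide and DMSO and 100% = tracer peptide lacking Bcl-B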
Sequence of UniProt Q9HD36 (Q9HD36 whole entry, looked up): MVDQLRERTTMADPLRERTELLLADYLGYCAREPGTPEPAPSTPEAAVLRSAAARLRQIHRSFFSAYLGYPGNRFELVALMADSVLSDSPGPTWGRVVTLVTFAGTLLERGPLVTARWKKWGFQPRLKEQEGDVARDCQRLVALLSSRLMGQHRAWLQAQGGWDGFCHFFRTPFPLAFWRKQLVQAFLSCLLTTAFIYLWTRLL

Structure (SMILES)	displacement [%]
CC(C)(C)c1cc(-c2ccccc2)n[nH]1	12.9
Cc1ccccc1NC(=O)C1CC(=O)N(c2ccccc2)C1 (stereo not given)	6.2
O=C(CSc1nc2ccccc2s1)Nc1nc2ccccc2s1	7.4
CCOC(=O)c1sc(NC(=O)C2CCCC2)c(C(=O)OCC)c1C	-10.4
CCOc1ccc(/C=C2\SC(=S)N(NC(=O)c3ccccc3)C2=O)cc1	12
CCOC(=O)c1c(N2C(=O)C3CC=C(Cl)CC3C2=O)sc2c1CCCC2 (stereo not given)	-14.9
COc1ccc(-c2noc(-c3ccc(C)c([N+](=O)[O-])c3)n2)cc1	-0.4
C=C1c2cc(OC)ccc2NC(=O)N1CC	4
CC(C)CC(=O)NC(NC(=S)Nc1cccc(Cl)c1)C(Cl)(Cl)Cl (stereo not given)	0.7
O=C(NCc1ccccn1)C(=O)Nc1ccc(Cl)c(C(F)(F)F)c1	-14.1
CSc1ccc(S(=O)(=O)N(CC(=O)Nc2cccc(C(C)=O)c2)c2ccc(C)cc2)cc1	13.1
COc1ccc(/C=N/N=C2/NC(=O)C(CC(=O)O)S2)cc1OC (stereo not given)	-2.1
Cc1cc(OCCCCN2CCCC2)ccc1Cl	-10.1
CC(=O)c1cccc(NC(=O)CN(c2cccc([N+](=O)[O-])c2)S(=O)(=O)c2ccccc2)c1	0
C/C(=N\Nc1nc(C)cc(C)n1)c1cccs1	-1.2
COc1ccccc1-c1c(C(F)(F)F)oc2c(CN3CC(C)OC(C)C3)c(O)ccc2c1=O (stereo not given)	-5.8
O=C1NC(=O)N(c2ccccc2)C(=O)/C1=C\c1ccc(Cl)cc1	1.4
O=C1c2ccccc2NC(c2ccc(F)cc2)N1c1ccc(Cl)cc1 (stereo not given)	14.4
CCOc1cc(/C=N\N2CCN(c3ccccc3)CC2)ccc1O	5.4
CC1=NN(c2ccc(S(N)(=O)=O)cc2)C(=O)/C1=C\c1ccc(-c2ccc(Cl)c([N+](=O)[O-])c2)o1	11.2
CCCOc1cccc(C(=O)Nc2sc(CC)cc2C(=O)OCC)c1	-16.7
C=CCNC(=O)CN(c1cc(OC)ccc1OC)S(C)(=O)=O	2.8

Structure (SMILES)	displacement [%]
COc1ccc(OC(C)C(=O)Nc2ccc([N+](=O)[O-])cc2OC)cc1 (stereo not given)	13.2
Oc1cccc(C=NC2CCCCC2)c1	-8.5
CCSc1nnc(N2C(=O)c3ccc(Oc4ccc([N+](=O)[O-])cc4)cc3C2=O)s1	-5.8
CC(=O)COc1ccc2c(C)cc(=O)oc2c1I	48.6
CCOC(=O)C1=C(CC)NC2=C(C(=O)CCC2)C1c1ccc(Cl)c(Cl)c1 (stereo not given)	0.7
O=C(O)COc1ccc2c(=O)c(Oc3ccccc3Br)coc2c1	9.5
Cc1ccc(OCCCN2CCCC2)c(C(C)(C)C)c1	7.3
O=[N+]([O-])c1ccc(/C=N/NS(=O)(=O)c2ccccc2)cc1	9.6
O=C(CCNc1ccc(Cl)cc1)c1cccs1	5.2
CCCCN(CC)Cc1c(O)ccc2c(-c3ccccc3)cc(=O)oc12	5.1
COc1ccc(NC(=O)C2CN(S(=O)(=O)c3ccccc3)CCN2S(=O)(=O)c2ccccc2)c(OC)c1 (stereo not given)	-32.7
Cc1ccccc1NC(=O)C(=O)NCc1ccncc1	11.4
CCOC(=O)c1c(C)oc2ccc(OCc3ccc(F)cc3)cc12	9.9
O=C(Nc1ccc(Cl)cc1)C1C2CCC3C(CCC21)C3(Cl)Cl (stereo not given)	-3.3
O=C(NC(=S)Nc1ccc(Br)cc1)c1ccco1	13.1
O=c1c2ccccc2nc(SCCc2ccccc2)n1Cc1ccccc1	-7.8
Cn1c(=O)c2c(nc(Oc3ccccc3)n2C)n(C)c1=O	10.6
COc1cccc(CN2CCN(C3CCN(Cc4ccccc4)CC3)CC2)c1OC	-18.2
COc1ccc(NC(=O)COc2ccc(Cl)cc2)cc1	17.7
COCCNC(=O)c1cc2n(n1)C(C(F)(F)F)CC(c1ccc(F)cc1)N2 (stereo not given)	2.2
O=C(CN1C(=O)/C(=C/c2ccccc2)SC1=S)NNC(=O)c1ccccc1Br	-9
O=C(O)CN1C(=O)/C(=C\c2cccc(Cl)c2)SC1=S	21.4

Structure (SMILES)	displacement [%]
Cc1ccc(-n2nc3cc(C)c(NC(=O)c4ccccc4)cc3n2)cc1	-4.4
O=C(Nc1ccc(-c2nc3ccccc3o2)c(O)c1)c1cc(I)ccc1Cl	5
CC(NS(=O)(=O)c1ccc(Cl)cc1)c1ccccc1 (stereo not given)	11.4
C=CCOc1ccc2c(C)cc(=O)oc2c1I	4.5
Cc1ccc(OCC(=O)N/N=C\C=N/NC(=O)COc2ccc(C)cc2)cc1	-1.6
COc1nc(N2C(C)CCCC2C)nc(N2C(C)CCCC2C)n1 (stereo not given)	-9.8
O=C(Nc1nccs1)C1CC1(c1ccccc1)c1ccccc1 (stereo not given)	-4.2
O=C1CC(c2ccc3c(c2)OCO3)CC2=C1C(c1ccc(C(F)(F)F)cc1)Nc1ccccc1N2 (stereo not given)	-3.1
O=C(/C=C/c1ccccc1Cl)Nc1ccc(S(=O)(=O)N2CCOCC2)cc1	0.8
Cc1ccc(N2C(=O)CC(NCCc3ccccc3F)C2=O)cc1 (stereo not given)	0.7
COc1cc(NC(=O)/C=C/c2ccc(OC)c(OC)c2)c(OC)cc1Cl	4.5
COC(=O)CN1C(C)=Nc2ccc(Br)cc2C1c1ccccc1Cl (stereo not given)	-10
Cc1ccc(S(=O)(=O)Oc2ccc(Nc3ccccc3)cc2)cc1	-4
Nc1nnc(SCC(=O)NC(c2ccccc2)c2ccccc2)s1	-0.3
Cc1ccc(C)c(S(=O)(=O)NC(=O)C(C)O)c1 (stereo not given)	0.6
COc1ccc(N(CC(=O)Nc2cccc(Cl)c2)S(C)(=O)=O)cc1	4.4
Cc1ccc2nc(-c3ccccc3C)oc(=O)c2c1	-10.9
O=C(Nc1ccc(N2CCCCC2)cc1)c1cccs1	2.3
COC(=O)c1ccccc1NC(=O)COc1ccc(Br)cc1	20.7
CCc1ccccc1NS(=O)(=O)c1cccc([N+](=O)[O-])c1	7.4
CC(=O)Nc1ccccc1NC(=O)Cc1ccc(Cl)cc1	-8.8
COc1ccc(/C=C2\SC(N3CCN(C(=O)CCCN4C(=O)/C(=C/c5cccs5)SC4=S)CC3)=NC2=O)cc1	10.1

Structure (SMILES)	displacement [%]
COc1ccccc1NS(=O)(=O)c1ccc(C)cc1C	4.1
CC1=C(C(=O)OCCOc2ccccc2)C(c2ccc(Cl)c(Cl)c2)C2=C(CCCC2=O)N1 (stereo not given)	5.2
Cc1ccc(C)c(NCn2nnc3ccccc32)c1	-8.5
CC(=O)c1c(-c2ccccc2)[nH]n(-c2nc3ccccc3s2)c1=O	-20.1
COc1ccc2oc(=O)c(C(=O)N(Cc3ccccc3)Cc3ccccc3)cc2c1	-12.1
CCOc1ccc(N2C(=O)S/C(=C\c3ccccc3OC)C2=O)cc1	32.7
C/C(CCc1oc2ccc(Cl)cc2c1-c1ccc(C)o1)=N\O	-0.5
COc1ccc(C2C(C(=O)OC(C)C)C(=O)CC(C)(O)C2C(=O)OC(C)C)cc1 (stereo not given)	1
COc1ccc(C(=O)Nc2ccc(C)cc2C)cc1OC	15.4
Cc1cc(C)n(-c2nc(-c3ccccc3)cc(-c3ccc(F)cc3)n2)n1	-10
CCOc1ccccc1N(CC(=O)NC1CCCCC1)S(=O)(=O)c1ccccc1	10.8
O=C(Nc1c(F)c(F)c(F)c(F)c1F)c1ccco1	-5.7
COc1cc(/C=C2/C(=O)N(c3ccc(Cl)c(C(=O)O)c3)N=C2C)ccc1Oc1nc2c(c(=O)n(C)c(=O)n2C)n1C	-4.8
O=C(O)c1cc(-c2cccc(Cl)c2)nc2ccccc12	-0.4
COc1ccc(N2C(=O)/C(=C/c3ccc(OC)c(OC)c3)SC2=S)cc1	6.5
Cc1ccc(C(=O)N/C(=C\c2ccco2)C(=O)Nc2ccccc2C)cc1	-9.1
CC(=O)c1cccc(-c2ccc(/C=C3\C(=O)N(c4cccc(C(=O)O)c4)N=C3C)o2)c1	28.2
CC1(C)CC(=O)CC(c2ccccc2)(C(F)(F)F)O1 (stereo not given)	1.9
C=C(C)CNC(=S)NNC(=O)c1cccc(C)c1	-3.7
O=C1OC(c2ccc(Cl)cc2)=C/C1=C\c1cccnc1	18.8
COC(=O)CC1=C(C(=O)OC)C(c2cccc([N+](=O)[O-])c2)C(C(=O)OC)=C(C)N1 (stereo not given)	-12.5
CCOc1ccc2nc(NC(=O)c3cc(C)cc(C)c3)sc2c1	0.8

Structure (SMILES)	displacement [%]
CN(C)C(=O)/C(=C\c1cccc(Br)c1)NC(=O)c1ccccc1	-2.4
Cc1ccc(S(=O)(=O)Oc2cccc(/C=C3/SC(=S)N(c4ccccc4)C3=O)c2)cc1	-12.7
c1ccc(-c2nnnn2-c2ccccc2)cc1	9.6
CC(=O)ON=C1CC(C)(C)NC(C)(C)C1	12.1
O=S(=O)(c1cc(Cl)ccc1Cl)N1CCN(C/C=C/c2ccccc2)CC1	-7.4
COc1ccc(-c2ccc(/C=C/c3cc(C(F)(F)F)[nH]c(=O)n3)o2)c([N+](=O)[O-])c1	78.8
Cc1ccc(NC(=O)c2cnccn2)cc1C	-4.6
Cc1cn(C(=O)C(C)N2C(=O)c3ccccc3C2=O)c(C)n1 (stereo not given)	-5.3
CC(=O)c1cccc(NC(=O)c2ccc(CN(c3ccccc3)S(C)(=O)=O)cc2)c1	-0.6
CC1CN(Cc2c(O)ccc3c4c(c(=O)oc23)CCC4)CC(C)O1 (stereo not given)	2.8
CC(=O)Nc1ccc2c(c1)ncn2-c1ccccc1	-4.2
N#Cc1c(N)sc2c1CCN(Cc1ccccc1)C2	3.4
CN(C)CCCN(CCCNC(=O)/C=N/O)Cc1ccccc1	3.2
O=C(CN(c1ccc(Br)cc1)S(=O)(=O)c1ccccc1)NCC1CCCCC1	1.3
CCCCCc1ccc(/C(C)=N/Nc2nc(C)cc(=O)[nH]2)cc1	-5.4
COc1ccc(NC(=O)c2ccc(N(Cc3ccc(Cl)cc3)S(C)(=O)=O)cc2)cc1OC	-5.3
CC(=O)Nc1ccc(NC(=O)c2cccc(I)c2)cc1	-8.3
CC(=O)Nc1ccc(NS(=O)(=O)c2ccc(C)cc2)cc1	0
COc1ccccc1N(CC(=O)Nc1ccc(Cl)cc1)S(=O)(=O)c1ccccc1	-0.7
COc1cc(NC(=O)c2cccc(F)c2)c(OC)cc1NC(C)=O	7.4
COc1ccc(C2Nc3ccccc3C(=O)N2c2ccc(Cl)cc2)cc1Cn1nc(C)c([N+](=O)[O-])c1C (stereo not given)	2.4
CCOc1ccc(S(=O)(=O)N(CC(=O)NC2CCCCC2)c2ccc(C)cc2)cc1	8
